{
  "source": "PubChem BioAssay AID2147",
  "about": "(National Center for Advancing Translational Sciences (NCATS), 2009)",
  "note": "The campaign covered roughly 230,000 compounds. About 3,600 (1.6%) were called active. Inconclusive results, whose numbers are uncertain, are shown with a selection of clear calls. The call rests on the fitted dose curve; in most records, active means well fitted inhibition curve with a large enough effect (not every such curve was filed as active); inconclusive means small, poorly fitted or top-dose-only effect, or another doubt; inactive means no such curve, though single readings can be large or run the other way. Potencies of inconclusive entries are doubtful fits and often do not repeat. Further: nearly all actives have a fitted effect of over 50% in size. Potency means the concentration at half of the fitted maximal effect; tags describe the fitted curve by direction and shape.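 Wherever activity change, negative = inhibition is given: 0% = wells with enzyme and -100% = buffer wells without enzyme.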",
  "data": [
    {"target": "Lysine-specific demethylase 4E (Homo sapiens) (UniProt B2RXH2)", "sequence (B2RXH2 whole entry, looked up, the tested form may be a part)": "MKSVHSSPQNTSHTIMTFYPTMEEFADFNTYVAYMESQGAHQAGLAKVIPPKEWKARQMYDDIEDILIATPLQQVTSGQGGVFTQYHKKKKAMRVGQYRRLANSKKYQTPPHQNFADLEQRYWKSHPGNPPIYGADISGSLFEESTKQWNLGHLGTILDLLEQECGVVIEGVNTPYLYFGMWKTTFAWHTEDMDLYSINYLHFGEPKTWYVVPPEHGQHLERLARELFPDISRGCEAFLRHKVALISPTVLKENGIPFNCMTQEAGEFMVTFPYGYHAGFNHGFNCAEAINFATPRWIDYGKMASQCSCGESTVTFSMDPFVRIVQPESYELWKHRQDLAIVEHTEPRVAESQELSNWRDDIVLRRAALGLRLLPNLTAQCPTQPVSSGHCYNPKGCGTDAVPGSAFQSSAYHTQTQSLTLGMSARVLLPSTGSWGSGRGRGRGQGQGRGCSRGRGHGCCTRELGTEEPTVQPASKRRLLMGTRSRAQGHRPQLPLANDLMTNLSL", "test": "qHTS Assay for Inhibitors of Human Jumonji Domain Containing 2E (JMJD2E)", "conditions": "JMJD2E catalytic domain, FDH-coupled NADH fluorescence (FDH is formaldehyde dehydrogenase); series mostly up to 57.1 µM; activity change, negative = inhibition: at the top concentration", "values": [
      {"smiles": "CCOC(=O)CNC(=O)O[C@@H]1C(=O)c2cc(Br)ccc2O[C@H]1c1ccc2c(c1)OCO2", "activity change, negative = inhibition": "inactive: -5.09%"},
      {"smiles": "O=C(COC(=O)C1CC(=O)N(c2ccc3c(c2)OCCO3)C1)NC1CCCc2ccccc21", "note": "(stereo unspecified)", "activity change, negative = inhibition": "inactive: -0.179%"},
      {"smiles": "COc1ccccc1NC(=O)c1ccc(NC(=O)COC(=O)C2(C)CC2(Cl)Cl)cc1", "note": "(stereo unspecified)", "activity change, negative = inhibition": "inactive: 5.23%"},
      {"smiles": "Cc1ccccc1C(=O)NC(=S)Nc1ccc(S(=O)(=O)N2CCN(C)CC2)cc1", "activity change, negative = inhibition": "inactive: 2.34%"},
      {"smiles": "COC(=O)[C@@]1(Cc2ccc(OC)cc2)[C@H]2c3cc(C(=O)N(C)C)n(Cc4ccccn4)c3C[C@H]2CN1C(=O)c1ccccc1", "activity change, negative = inhibition": "inactive: -3.84%"},
      {"smiles": "O=C(CSc1nnnn1-c1ccccc1F)NNC(=O)c1ccco1", "activity change, negative = inhibition": "inactive: -24%"},
      {"smiles": "Cc1cc(C)n2nc(/C(C#N)=C/c3ccccc3)c(C#N)c2n1", "Potency": "inconclusive: 31.6 µM [inhibitor, partial curve]"},
      {"smiles": "Cn1c(N)c(C#N)c2c(c1=S)COC(C)(C)C2", "activity change, negative = inhibition": "inactive: -17%"},
      {"smiles": "COc1ccc(Nc2ncc3c(n2)CC(c2ccc(OC)cc2)CC3=O)cc1", "note": "(stereo unspecified)", "Potency": "inconclusive: 35.5 µM [inhibitor, single point]"},
      {"smiles": "COc1cc(/C=C/[N+](=O)[O-])ccc1OCc1cccc(C(=O)O)c1", "Potency": "inconclusive: 39.8 µM [inhibitor, single point]"},
      {"smiles": "CCOC(=O)CS(=O)(=O)c1nc(-c2ccc(F)cc2)cc(C(F)(F)F)n1", "Potency": "inconclusive: 28.2 µM [inhibitor, single point]"},
      {"smiles": "COc1ccc(-c2nc(C#N)c(N3CCOCC3)o2)cc1OC", "Potency": "inconclusive: 28.2 µM [inhibitor, partial curve]"},
      {"smiles": "COCCNC(=O)CSc1nc(-c2ccc(OC)c(OC)c2)cc(C(F)(F)F)n1", "Potency": "inconclusive: 28.2 µM [inhibitor, partial curve]"},
      {"smiles": "C=CCN1c2ccccc2[C@]23C[C@@H](C(=O)OC)N(S(=O)(=O)c4c(C)noc4C)C2=NC(C(=O)OC)=C(C(=O)OC)[C@H]13", "activity change, negative = inhibition": "inactive: 7.85% [at 11.4 µM]"},
      {"smiles": "CCCc1cc(=O)n2[nH]c(NCc3c(Cl)cccc3Cl)nc2n1", "Potency": "inconclusive: 39.8 µM [inhibitor, single point]"},
      {"smiles": "CC1=NNC(=O)C1C(c1ccc(Cl)cc1)C(C#N)C#N", "note": "(stereo unspecified)", "activity change, negative = inhibition": "inactive: -19.4%"},
      {"smiles": "CCOCc1cnc(C)nc1NCC(=O)c1c(C)[nH]c2cc(C)ccc12", "Potency": "inconclusive: 31.6 µM [inhibitor, single point]"},
      {"smiles": "COC(=O)CN(c1cc(C(F)(F)F)ccc1Cl)S(C)(=O)=O", "Potency": "inconclusive: 39.8 µM [inhibitor, single point]"},
      {"smiles": "CCOC(=O)c1c(NC(=O)C2C3C=CC(C3)C2C(=O)O)sc2c1CCCC2", "note": "(stereo unspecified)", "Potency": "inconclusive: 25.1 µM [inhibitor, partial curve]"},
      {"smiles": "CCOC(=O)C1Cn2c(nc3c(c2=O)C2(CCCC2)Cc2ccccc2-3)S1", "note": "(stereo unspecified)", "Potency": "inconclusive: 35.5 µM [inhibitor, partial curve]"},
      {"smiles": "COc1ccc(Nc2ccnc(Nc3ccc(OC)cc3)n2)cc1", "activity change, negative = inhibition": "inactive: 5.74%"},
      {"smiles": "Cc1cc(C)c2sc(NC(=O)c3ccc(N4C(=O)CCC4=O)cc3)nc2c1", "Potency": "inconclusive: 31.6 µM [inhibitor, single point]"},
      {"smiles": "CC(=O)N1CCN(c2nc(-c3ccco3)c3c(c2C#N)CC(C)(C)SC3)CC1", "Potency": "inconclusive: 25.1 µM [inhibitor, partial curve]"},
      {"smiles": "CCCCN(C(=O)NC(=O)Nc1ccc(C)cn1)S(C)(=O)=O", "Potency": "inconclusive: 35.5 µM [inhibitor, single point]"},
      {"smiles": "CC(=O)Oc1ccc2c(C)cc(=O)oc2c1", "Potency": "inconclusive: 31.6 µM [inhibitor, partial curve]"},
      {"smiles": "COc1cccc(SCc2noc(C(=O)NCc3ccccc3)c2C(=O)NCc2ccccc2)c1", "activity change, negative = inhibition": "inactive: 10.7%"},
      {"smiles": "CCn1c(=O)c2cc(C(=O)NC(C)C)sc2c2ccccc21", "Potency": "inconclusive: 31.6 µM [inhibitor, partial curve]"},
      {"smiles": "Cc1cc(F)ccc1NC(=O)C(C)n1c2ccccc2c2nc(=O)cc(C)n21", "note": "(stereo unspecified)", "Potency": "inconclusive: 39.8 µM [inhibitor, single point]"},
      {"smiles": "CC1CC(CC(=O)NNc2nc(-c3ccccc3)cs2)C(=O)O1", "note": "(stereo unspecified)", "activity change, negative = inhibition": "inactive: 7.91%"},
      {"smiles": "CC(=O)N1C(=O)/C(=C2\\SC(=S)N(NC(=O)c3ccc(O)cc3)C2=O)c2ccccc21", "Potency": "inconclusive: 25.1 µM [inhibitor, partial curve]"},
      {"smiles": "Cn1ncc(Br)c1C(=O)NC(=S)N1CCN(c2ccccn2)CC1", "activity change, negative = inhibition": "inactive: -1.59%"},
      {"smiles": "Cc1nc(CCNC(=O)c2cc(COc3ccc(F)cc3Cl)on2)sc1C", "Potency": "inconclusive: 39.8 µM [inhibitor, single point]"},
      {"smiles": "CC(c1nc2ccccc2c(=O)[nH]1)N(C)CCOc1ccc(Cl)cc1", "note": "(stereo unspecified)", "activity change, negative = inhibition": "inactive: -1.03%"},
      {"smiles": "CN1CCCN(C(=O)CC2(CC(=O)O)CCCCC2)CC1", "activity change, negative = inhibition": "inactive: 5.51%"},
      {"smiles": "O=c1[nH]c(-c2ccccc2)c(-c2ccccc2)[nH]1", "Potency": "inconclusive: 28.2 µM [inhibitor, partial curve]"},
      {"smiles": "CC(=O)NC(Cc1ccccc1)C(=O)N1CCN(C(=O)c2ccco2)CC1", "note": "(stereo unspecified)", "activity change, negative = inhibition": "inactive: -1.71%"},
      {"smiles": "CC(C)CCC(O)(CCC(C)C)C(=O)NN1CCCCC1", "activity change, negative = inhibition": "inactive: -3.95%"},
      {"smiles": "Cc1cc(S(=O)(=O)Nc2nc(CN3CCOCC3)nc3sc4c(c23)CCCC4)ccc1F", "Potency": "inconclusive: 28.2 µM [inhibitor, single point]"},
      {"smiles": "C/C(CCC(C)C)=N\\NC(=S)Nc1cc(S(=O)(=O)N2CCOCC2)ccc1N1CCOCC1", "activity change, negative = inhibition": "inactive: 9.18%"},
      {"smiles": "COc1c(OC(C)=O)ccc(/C=N\\NC(=O)c2ccc(Br)cc2)c1[N+](=O)[O-]", "activity change, negative = inhibition": "inactive: 4.29%"},
      {"smiles": "CC(C)CCN1C(=O)c2ccccc2C1C(=O)NCc1cccnc1", "note": "(stereo unspecified)", "activity change, negative = inhibition": "inactive: -1.36%"},
      {"smiles": "COc1ccc(COc2cc(-c3cccc(OC)c3)nc3ccc(NC(=O)c4ccc(OC)cc4)cc23)cc1", "Potency": "inconclusive: 22.4 µM [inhibitor, partial curve]"},
      {"smiles": "CCOc1ccc2[nH]c(=O)c(CN(Cc3ccc(F)cc3)C(=O)N3CCCC3)cc2c1", "Potency": "inconclusive: 22.4 µM [inhibitor, partial curve]"},
      {"smiles": "COC(=O)CCC(=O)OC1(C)C(=O)C2=CN(CCc3c[nH]c4ccccc34)C(c3ccc(OC)cc3)=CC2=C(Br)C1=O", "note": "(stereo unspecified)", "activity change, negative = inhibition": "inactive: 2.22% [at 11.4 µM]"},
      {"smiles": "Cn1c(C(=O)NCCc2ccsc2)cc2c(=O)n(C)c3ccccc3c21", "Potency": "inconclusive: 35.5 µM [inhibitor, partial curve]"},
      {"smiles": "COc1cc2c(cc1C(F)(F)F)N(C(=O)Nc1cc(F)cc(-c3cccnc3)c1)CC2", "Potency": "inconclusive: 8.91 µM [inhibitor, full curve]"},
      {"smiles": "CCN(CC)C(=O)Cc1c(O)c2ccccc2[nH]c1=O", "Potency": "inconclusive: 35.5 µM [inhibitor, partial curve]"},
      {"smiles": "CCC(=O)Nc1cc2c(cc1C(C)=O)OCCO2", "Potency": "inconclusive: 22.4 µM [inhibitor, partial curve]"},
      {"smiles": "CCCNC(=O)C(C)n1c2ccccc2c2nc(=O)cc(C)n21", "note": "(stereo unspecified)", "Potency": "inconclusive: 39.8 µM [inhibitor, single point]"},
      {"smiles": "COc1ccc(NCC(=O)N/N=C/C=C\\c2ccccc2)cc1", "activity change, negative = inhibition": "inactive: -3.83%"},
      {"smiles": "c1ccc(Cc2nnc3sc(-c4ccncc4)nn23)cc1", "activity change, negative = inhibition": "inactive: -1.12%"},
      {"smiles": "CCCc1cc(=O)n2c([nH]c3ccccc32)c1C#N", "Potency": "inconclusive: 28.2 µM [inhibitor, partial curve]"},
      {"smiles": "CCOc1cc(/C=N/Nc2nc(-c3cccc(S(=O)(=O)N4CCCC4)c3)cs2)ccc1O", "activity change, negative = inhibition": "inactive: 7.89%"},
      {"smiles": "Cc1ccc(NC(=O)c2cc(-c3ccco3)nc3ccccc23)cc1S(=O)(=O)N1CCOCC1", "Potency": "active: 15.8 µM"},
      {"smiles": "Cc1ccc(-c2nc(CS(=O)(=O)CC(=O)NC3CCCCC3C)c(C)o2)cc1", "note": "(stereo unspecified)", "Potency": "inconclusive: 39.8 µM [inhibitor, single point]"},
      {"smiles": "O=C(CSc1nc2ccccc2[nH]1)Nc1nc(-c2ccccc2)c(-c2ccccc2)o1", "Potency": "inconclusive: 14.1 µM [inhibitor, partial curve]"},
      {"smiles": "CC(OC(=O)c1ccccc1OCc1ccc(Cl)cc1)C(N)=O", "note": "(stereo unspecified)", "Potency": "inconclusive: 22.4 µM [inhibitor, single point]"},
      {"smiles": "N#CCSc1nc2cc(C(=O)N3CCC(C(N)=O)CC3)ccc2c2nc3ccccc3n12", "activity change, negative = inhibition": "inactive: -17.6%"},
      {"smiles": "Cn1c(=O)c2[nH]c(Nc3ccccc3)nc2n(C)c1=O", "activity change, negative = inhibition": "inactive: -17.7%"},
      {"smiles": "O=C(CNC(=O)c1ccccc1F)N/N=C/c1cc(Br)ccc1OC(=O)/C=C/c1ccco1", "Potency": "inconclusive: 39.8 µM [inhibitor, single point]"},
      {"smiles": "Cc1cc(C)n(-c2nc(Nc3ccccc3)nc(-n3nc(C)cc3C)n2)n1", "activity change, negative = inhibition": "inactive: -4.83%"},
      {"smiles": "COc1ccc(OC)c(/C=C/C(=O)OCC(=O)Nc2cccc(C(C)=O)c2)c1", "Potency": "inconclusive: 28.2 µM [inhibitor, partial curve]"},
      {"smiles": "Cc1ccc(-c2nc3ccccc3[nH]2)cc1NC(=O)c1sc2cc(Cl)ccc2c1Cl", "Potency": "inconclusive: 12.6 µM [inhibitor, partial curve]"},
      {"smiles": "CCCCC/C=C\\C[C@@H](O)/C=C/C=C/C=C\\[C@@H](O)CCCC(=O)O", "activity change, negative = inhibition": "inactive: -8.12%"},
      {"smiles": "CCN(CC)CCSc1nc2ccccc2c(=S)n1-c1ccccc1", "activity change, negative = inhibition": "inactive: -4.12%"},
      {"smiles": "O=C(Cn1c(=O)oc2cccnc21)Nc1ccc(C(F)(F)F)cc1", "Potency": "inconclusive: 25.1 µM [inhibitor, partial curve]"},
      {"smiles": "CCOC(=O)CSc1nnc(SCCN2C(=O)c3ccccc3C2=O)s1", "activity change, negative = inhibition": "inactive: 3.89%"},
      {"smiles": "CCCNC(=O)c1c(N)n(-c2cc(OC)cc(OC)c2)c2nc3ccccc3nc12", "Potency": "inconclusive: 28.2 µM [inhibitor, partial curve]"},
      {"smiles": "COc1ccc2cc(S(=O)(=O)c3ccccc3)c(=O)oc2c1", "Potency": "inconclusive: 31.6 µM [inhibitor, partial curve]"},
      {"smiles": "C1=C(CCNc2ncnc3c2[nH]c2ccccc23)CCCC1", "Potency": "inconclusive: 28.2 µM [inhibitor, partial curve]"},
      {"smiles": "C=CCn1c(N)c(C(=O)Nc2cccc(C)c2)c2nc3ccccc3nc21", "Potency": "inconclusive: 25.1 µM [inhibitor, partial curve]"}
    ]}
  ]
}
